Source: PubChem BioAssay AID686970 (National Center for Advancing Translational Sciences (NCATS), 2013)
About 6,000 (1.7%) of roughly 360,000 compounds were called active. This list was built around the results that the source calls inconclusive (neither active nor inactive); the mix of calls is not that of the screen. Calls follow the shape of the dose curve; as a rule, active = well fitted cell-killing curve with a large enough effect; inconclusive = small, poorly fitted or top-dose-only effect, or effect the other way; inactive = flat fitted curve, though single readings scatter. Potencies of inconclusive entries are left out as doubtful fits.

Test: qHTS for induction of synthetic lethality in tumor cells producing 2HG: qHTS for the HT-1080-NT fibrosarcoma cell line;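 also: NT is the 2HG producing partner of a matched IDH1 knockdown line; nearly all actives have a fitted effect of over 55% in size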;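 as to activity, negative = less viability: 0% = DMSO-treated cells and -100% = media-only wells without cells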
Conditions: HT-1080-NT fibrosarcoma viability, CellTiter-Glo ATP luminescence, 48 h; activity, negative = less viability: at 46.1 µM (top of the series) unless noted
How it was run: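 Luminescent CellTiter-Glo readout after 48 hours of compound exposure at 37 degrees C defined viability of HT-1080-NT cells. Activity was normalized to DMSO wells and cell-free media wells; concentration-response curves were fitted and assigned curve classes.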
Potency is read from the fitted curve at half-maximal effect; tags tell the direction and shape of the fitted curve.

With `CC(C)(C)c1ccc(-c2nc(C#N)c(N3CCC(C(N)=O)CC3)o2)cc1` as the compound, how does the Potency read?
Its Potency is inconclusive [cytotoxic, single point].

For `CC1(C)Cc2c(c(N3CCOCC3)nc3snc(N)c23)CO1`, which Potency is on record?
The Potency was active: 11.2 µM.

For `CC(Sc1nnc(-c2ccccc2F)o1)C(=O)Nc1ccc(N2CCOCC2)cc1` (stereo not given), which “activity, negative = less viability” value is on record?
Its value is inactive: -4.96%.

For `CSc1ccc(/C=C(\C#N)C(=O)NC2CCCCC2C)cc1` (stereo not given), which Potency is on record?
The Potency was inconclusive [cytotoxic, single point].

Which Potency does the source give for `CC(=O)NCc1ccc(-c2csc(-c3cccs3)n2)cc1` here?
The Potency was inconclusive [cytotoxic, single point].

With `CCn1c(=O)c2cc(C(=O)NCCCOC)sc2c2ccccc21` as the compound, how does the Potency read?
The Potency was inconclusive [cytotoxic, single point].

Which Potency does the source give for `CC1CCN(c2ccc(NC(=S)NC(=O)c3ccc(-c4cccc([N+](=O)[O-])c4)o3)cc2)CC1` here?
The Potency was inconclusive [cytotoxic, partial curve, poor fit].

With `Cc1cc(/C=C2\SC(=S)N(C)C2=O)c(C)n1-c1ccccc1O` as the compound, how does the Potency read?
Its Potency is inconclusive [cytotoxic, partial curve].

With `CCOc1ccc(CCN2C(=O)C(=O)N([C@@H](CC(C)C)CN3CCC[C@H]3CN3C(=O)C(=O)NC[C@@H]3Cc3ccccc3)C[C@@H]2CC(C)C)cc1` as the compound, how does the “activity, negative = less viability” value read?
The value was inactive: 11.6%.

For `Cc1ccc(-n2c(C)cc(C(=O)CSc3nncs3)c2C)cc1`, which Potency is on record?
The Potency was inconclusive [cytotoxic, single point].

With `O=C(CN1C(=O)c2ccccc2C1=O)Nc1ccc(S(=O)(=O)N2CCOCC2)cc1` as the compound, how does the Potency read?
Its Potency is inconclusive [rising, single point].

Which Potency does the source give for `CN1OC[C@@H]2CN[C@H](c3ccc(-c4cc5ccccc5o4)cc3)C[C@@H]21` here?
The Potency was inconclusive [cytotoxic, single point].

With `CCc1ccc(C(=O)Nc2nc(C)cs2)s1` as the compound, how does the activity, negative = less viability read?
The activity, negative = less viability was inconclusive: -20.4% [cytotoxic].

Which Potency does the source give for `C=CCc1cccc(CNc2nc3ccccc3n2CCC)c1O` here?
Its Potency is inconclusive [cytotoxic, single point].

Which Potency does the source give for `COc1ccc(NC(=O)C2Cc3c(-c4ccccc4Oc4ccccc4)ccnc3O2)cc1OC` (stereo not given) here?
The Potency was inconclusive [cytotoxic, single point].

For `Cc1cc(Nc2cccc(Cl)c2)c2ccccc2n1`, which “activity, negative = less viability” value is on record?
Its value is inactive: -11.4%.

For `CCN1C(=O)CSc2ccc(C(=O)NC3CCCCC3)cc21`, which “activity, negative = less viability” value is on record?
Its value is inactive: 3.01%.

With `Cc1cc(C(=O)OCC(=O)NCc2ccco2)c(C)n1-c1ccccc1` as the compound, how does the Potency read?
The Potency was inconclusive [cytotoxic, full curve].

With `CN[C@H]1C[C@H]2c3cc(Oc4ccccc4C)ccc3CCN2C(=O)[C@H]1[C@H](C)O` as the compound, how does the Potency read?
Its Potency is inconclusive [cytotoxic, partial curve].

For `Cc1nn(CC(=O)c2ccc(Br)s2)c(C)c1[N+](=O)[O-]`, which “activity, negative = less viability” value is on record?
The value was inactive: -8.69%.

Which “activity, negative = less viability” value does the source give for `CCC(c1nnnn1CCOC)N1CCN(c2cccc(C(F)(F)F)c2)CC1` (stereo not given) here?
Its value is inactive: -2.06%.

With `O=C(Nc1ccccc1)Nc1ccc2snnc2c1` as the compound, how does the Potency read?
Its Potency is inconclusive [cytotoxic, single point].

Which activity, negative = less viability does the source give for `Cc1cc(NC(=O)c2cc(-c3ccccn3)nc3ccc(Br)cc23)no1` here?
Its activity, negative = less viability is inconclusive: -0.192% [cytotoxic].

Which “activity, negative = less viability” value does the source give for `CC(=O)Nc1ccc(S(=O)(=O)NCC2CCC(C(=O)N3CC(C)CC(C)C3)CC2)cc1` (stereo not given) here?
The value was inactive: -19.3%.

For `Cc1ccc2[nH]c(C)cc(=S)c2c1`, which Potency is on record?
The Potency was inconclusive [cytotoxic, single point].

With `Cc1cccc(NS(=O)(=O)c2cccc(C(=O)NNC(=O)c3ccccc3O)c2)c1` as the compound, how does the Potency read?
Its Potency is inconclusive [cytotoxic, partial curve].

With `COc1cc(/C=N/Nc2nc(C)cc(=O)[nH]2)cc(OC)c1O` as the compound, how does the “activity, negative = less viability” value read?
The value was inactive: 12.5%.

With `CCOC(=O)C1=CCN(S(=O)(=O)c2ccccc2C)C1c1cccc(Br)c1` (stereo not given) as the compound, how does the Potency read?
Its Potency is inconclusive [cytotoxic, single point].

With `CCS(=O)(=O)c1ncc(Cl)c(C(=O)Nc2ccc(S(=O)(=O)N3CCC(C)CC3)cc2)n1` as the compound, how does the Potency read?
Its Potency is active: 2.91 µM.

With `CCCn1c(SCC(=O)Nc2ccc(NC(C)=O)cc2)nc2c1c(=O)n(C)c(=O)n2C` as the compound, how does the “activity, negative = less viability” value read?
Its value is inactive: 2.06%.

For `O=C(NCc1ccco1)c1cc(-c2cccs2)nc2ccccc12`, which “activity, negative = less viability” value is on record?
The value was inactive: -9.96%.

Which Potency does the source give for `CCCCCCCCN1C(=O)[C@H](CC(=O)N2CCN(C(=O)C3CC3)CC2)C[C@@]2(C(=O)OC)CCCCC=C12` here?
Its Potency is inconclusive [cytotoxic, single point].

With `C=CCNCC(=O)N1N=C(c2ccc3ccccc3c2)CC1c1ccc(OC)cc1` (stereo not given) as the compound, how does the Potency read?
The Potency was active: 23.1 µM.

Which Potency does the source give for `COc1ccc2sc(-c3ccccc3OC)c(C#Cc3cncn3C)c2c1` here?
The Potency was inconclusive [cytotoxic, single point].

Which “activity, negative = less viability” value does the source give for `Cn1c(CSc2nc3ccccc3s2)n[nH]c1=S` here?
The value was inactive: 5.62%.

Which “activity, negative = less viability” value does the source give for `CS(=O)(=O)Nc1ccc(C(=O)NC2CCCC2)cc1` here?
Its value is inactive: 9.51%.

Which “activity, negative = less viability” value does the source give for `CCN1C(=O)c2ccccc2Sc2ccc(C(=O)NC(C)C)cc21` here?
Its value is inactive: 3.62%.

Which Potency does the source give for `CCOC(=O)c1cc2cc(OC)ccc2n1C1CCN(CCc2ccccc2)CC1` here?
Its Potency is inconclusive [cytotoxic, single point].

Which “activity, negative = less viability” value does the source give for `CC1CCCN(C(=O)COC(=O)c2cc(-c3cccs3)nn2-c2ccccc2)C1` (stereo not given) here?
The value was inactive: -3.56%.

For `CCN(CC)S(=O)(=O)c1ccc(NC(=O)Nc2cccc(C(F)(F)F)c2)cc1`, which Potency is on record?
The Potency was inconclusive [cytotoxic, single point].

With `O=C(NNc1ncc(C(F)(F)F)cc1Cl)c1c(Cl)cccc1Cl` as the compound, how does the Potency read?
The Potency was inconclusive [cytotoxic, partial curve].

For `C=CCNC(=S)Nc1ccc(N(C)C)cc1`, which Potency is on record?
Its Potency is inconclusive [rising, single point].

With `COc1cc(-n2c(N)c(C(=O)NCc3ccco3)c3nc4ccccc4nc32)cc(OC)c1OC` as the compound, how does the Potency read?
Its Potency is inconclusive [cytotoxic, single point].

Which Potency does the source give for `CC1(C)CC(Nc2ccc(Nc3ccccc3)cc2)CC(C)(C)N1` here?
The Potency was inconclusive [cytotoxic, partial curve].

Which Potency does the source give for `COc1ccccc1C(=O)NNC(=O)c1cc2ccccc2cc1O` here?
Its Potency is inconclusive [cytotoxic, partial curve].
